Data from patent publication US20240261263A1, “COMPOUNDS AND METHODS TO SENSITIZE CANCER CELLS TO TYROSINE KINASE INHIBITORS” (Da Zen Theranostics, Inc., priority 2016, published 2024).
Read-outs that look alike come from different tables or passages of the source.

Legend:
[1] = system: A549/DDP (Cisplatin Resistant); experiment: Crystal Violet cell proliferation assay, A549/DDP; conditions: Homo sapiens, A549/DDP, 72 h
[2] = system: H1975; experiment: Crystal Violet cell proliferation assay, H1975; conditions: Homo sapiens, NCI-H1975, 72 h
[3] = system: A549 parental; experiment: Crystal Violet cell proliferation assay, A549; conditions: Homo sapiens, A549, 72 h
[4] = system: H1650; experiment: Crystal Violet cell proliferation assay, H1650; conditions: Homo sapiens, NCI-H1650, 72 h

IC50 ([1]; read-out: IC50 of TKIs A549/DDP, TKI + 5 uM DZ1-SIM Amide, 72 h): 34.6 µM
IC50 ([1]; read-out: IC50 of TKIs A549/DDP, TKI + 6 uM DZ1-SIM Amide, 72 h): 7 µM
IC50 ([1]; read-out: IC50 of TKIs A549/DDP, TKI + 7 uM DZ1-SIM Amide, 72 h): 7 µM
IC50 ([1]; read-out: IC50 of TKIs A549/DDP, TKI alone, 72 h): 18.6 µM
IC50 ([2]; read-out: IC50 of TKI H1975, Example 5, TKI alone, 72 h): 8 µM
IC50 ([2]; read-out: IC50 of TKI H1975, TKI + 10 uM RO (RO4929097), 72 h): 37.3 µM
IC50 ([2]; read-out: IC50 of TKI H1975, TKI + 15 uM RO (RO4929097), 72 h): 13 µM
IC50 ([2]; read-out: IC50 of TKI H1975, TKI + 20 uM RO (RO4929097), 72 h): 28.8 µM
IC50 ([2]; read-out: IC50 of TKI H1975 Mean (95% CI), TKI + 5 uM DZ1-SIM Amide, 72 h): 3.4 µM
IC50 ([2]; read-out: IC50 of TKI H1975 Mean (95% CI), TKI + 6 uM DZ1-SIM Amide, 72 h): 0.1 µM
IC50 ([2]; read-out: IC50 of TKI H1975 Mean (95% CI), TKI + 7 uM DZ1-SIM Amide, 72 h): 0.04 µM
IC50 ([4]; read-out: IC50 H1650 Mean (95% CI), drug alone, 72 h): 10.2 µM
IC50 ([4]; read-out: IC50 of TKI H1650 Mean (95% CI), TKI + 4 uM DZ1-SIM Amide, 72 h): 1.8 µM
IC50 ([4]; read-out: IC50 of TKI H1650 Mean (95% CI), TKI + 5 uM DZ1-SIM Amide, 72 h): 0.9 µM
IC50 ([4]; read-out: IC50 of TKI H1650 Mean (95% CI), TKI + 6 uM DZ1-SIM Amide, 72 h): 0.02 µM
SMILES: C#Cc1cccc(Nc2ncnc3cc4c(cc23)OCCOCCOCCO4)c1 [Icotinib]
IC50 ([3]; read-out: IC50 of TKIs A549, TKI + 7 uM DZ1-SIM Amide, 72 h): 3.3 µM
IC50 ([3]; read-out: IC50 of TKIs A549, TKI + 8 uM DZ1-SIM Amide, 72 h): 0.2 µM
IC50 ([3]; read-out: IC50 of TKIs A549, TKI + 8.5 uM DZ1-SIM Amide, 72 h): 1.4 µM
IC50 ([3]; read-out: IC50 of TKIs A549, TKI + 9 uM DZ1-SIM Amide, 72 h): 0.2 µM
IC50 ([3]; read-out: IC50 of TKIs A549, TKI alone, 72 h): 15.6 µM
